About 550 (1.1%) of roughly 48,000 compounds were called active. Inconclusive results (about 4%) are left out. Rule as the data show it: active = potency below about 15 µM; inconclusive = mostly about 16 µM to 33 µM; inactive = weaker than that. The list shows a part of the results.
The molecules below were run against Lysosomal acid glucosylceramidase (Homo sapiens) (UniProt P04062) (assay: Glucocerebrosidase). Conditions: purified enzyme, resorufin glucoside fluorescence (screen aimed at inhibitors), 20 min; series mostly up to 77 µM.
Sequence of UniProt P04062 (P04062 whole entry, looked up): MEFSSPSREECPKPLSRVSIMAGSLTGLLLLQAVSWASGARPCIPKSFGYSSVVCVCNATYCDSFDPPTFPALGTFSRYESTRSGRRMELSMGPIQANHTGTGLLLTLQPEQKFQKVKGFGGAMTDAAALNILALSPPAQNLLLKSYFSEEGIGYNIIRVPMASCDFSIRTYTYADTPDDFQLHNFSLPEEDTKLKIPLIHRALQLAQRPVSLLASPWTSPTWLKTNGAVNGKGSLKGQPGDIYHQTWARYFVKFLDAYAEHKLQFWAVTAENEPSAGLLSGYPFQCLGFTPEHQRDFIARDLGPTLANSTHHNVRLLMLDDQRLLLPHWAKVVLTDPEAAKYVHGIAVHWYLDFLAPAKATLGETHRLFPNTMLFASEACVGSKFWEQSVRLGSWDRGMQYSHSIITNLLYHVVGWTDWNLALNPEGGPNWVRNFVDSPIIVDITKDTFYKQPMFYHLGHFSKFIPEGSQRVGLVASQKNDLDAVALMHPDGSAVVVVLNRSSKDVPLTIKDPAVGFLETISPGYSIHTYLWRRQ
Summary of the method: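 Wild-type enzyme at 0.2 nM final in 50mM citric acid/KH2PO4, 10mM sodium taurocholate, 0.01% tween-20, pH 5.9, with resorufin beta-D-glucopyranoside at 30 uM final. Compounds titrated, 20 min at RT, red fluorescence read; AC50 from titration.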
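Also: the screen sought inhibitors.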
Potency is read from the fitted curve at half-maximal effect.

SMILES | Potency
Cc1cc(C(=O)CN2C(=O)c3ccccc3S2(=O)=O)c(C)n1CC1CCCO1 (stereo not given) | inactive: > 76.9 µM
CCOc1ccc(C)cc1S(=O)(=O)Nc1cccnc1 | inactive: > 76.9 µM
Nc1nc(C2CCCN2S(=O)(=O)c2ccc(Cl)cc2)cs1 (stereo not given) | inactive: > 76.9 µM
CS(=O)(=O)NCc1nnc(SCc2ccccc2C(F)(F)F)o1 | inactive: > 76.9 µM
COc1ccc(CCNC(=O)c2oc3ccc(S(=O)(=O)N4CCOCC4)cc3c2C)cc1OC | inactive: > 76.9 µM
N#Cc1cc2c(=O)n3ccccc3nc2n(CCCN2CCOCC2)c1=O | inactive: > 76.9 µM
c1nc(NCCN2CCOCC2)c2sc3nc(N4CCOCC4)c4c(c3c2n1)CCC4 | inactive: > 76.9 µM
CN(C)S(=O)(=O)c1ccc(C(=O)Nc2ccccc2C(=O)O)cc1 | inactive: > 76.9 µM
CC(C)COc1ccc(C(=O)N(Cc2ccco2)C2CCS(=O)(=O)C2)cc1 (stereo not given) | inactive: > 76.9 µM
COc1ccccc1NC1=NCC(=O)N1Cc1ccccc1 | inactive: > 76.9 µM
COc1ccc(C2C3=C(Nc4ncnn42)c2ccccc2CC3)cc1OC (stereo not given) | inactive: > 76.9 µM
Cn1nnc(C(O)CNCc2cccs2)n1 (stereo not given) | inactive: > 76.9 µM
CCN(CC)CCNC(=O)Cn1c(-c2ccccn2)nc2ccccc21 | inactive: > 76.9 µM
COC(=O)COc1ccc(S(=O)(=O)Nc2ccc3c(c2)OCCO3)cc1Cl | active: 13.9 µM
OCC#Cc1cnc2ccccc2c1 | inactive: > 76.9 µM
CC(c1nnc(SCC(=O)NC(=O)NCc2ccco2)n1-c1ccc(Cl)cc1)N(C)C (stereo not given) | inactive: > 76.9 µM
Cc1ccc(NC(=O)c2ccccc2F)nc1 | inactive: > 76.9 µM
Cc1cccc(-c2nsc(SCC(=O)NCc3ccco3)n2)c1 | inactive: > 76.9 µM
COC(=O)c1cc(COC(=O)c2cccnc2SC)oc1C | inactive: > 76.9 µM
COc1ccc(C(=O)NCCCn2ccnc2)cc1 | inactive: > 76.9 µM
CC1(CC(=O)O)C(=O)N=C2C=CC=CN21 (stereo not given) | inactive: > 76.9 µM
CCn1c(SCC(=O)Nc2nccs2)nnc1-c1ccc(C)cc1 | inactive: > 76.9 µM
Cc1c(OCc2nn[nH]n2)ccc2c3c(c(=O)oc12)CCC(C)C3 (stereo not given) | inactive: > 76.9 µM

SMILES | Potency
Cn1c(=O)n(C)c2cc(NC(=O)c3cc4ccccc4o3)ccc21 | inactive: > 76.9 µM
CCOC(=O)c1ccc(CNC(=O)c2cc3cccc(OC)c3oc2=O)o1 | inactive: > 76.9 µM
Cc1ccccc1C(=O)Nc1cccc(N)c1 | inactive: > 76.9 µM
Cc1[nH]c2ccccc2c1C(=O)CN1CCCCC1CCO (stereo not given) | inactive: > 76.9 µM
CC(O)c1cccc(NC2=CC(=O)CC(C)(C)C2)c1 (stereo not given) | inactive: > 76.9 µM
CCOCCCn1c(=NC(=O)c2cccnc2)c(C(=O)OCC)cc2c(=O)n3ccccc3nc21 | inactive
O=C(C1CCN(S(=O)(=O)c2cccc3nsnc23)CC1)N1CCN(c2ccccc2F)CC1 | inactive: > 76.9 µM
Cc1ccc(-c2csc(NC(=O)CSc3ncn(-c4ccccc4)n3)n2)cc1 | inactive: > 76.9 µM
Nn1c(SCC(=O)Nc2ccc3c(c2)OCCO3)nnc1-c1ccccn1 | inactive: > 76.9 µM
CCOC(=O)Cc1csc(SCC(=O)N2CCN(c3ccc(OC)cc3)CC2)n1 | inactive: > 76.9 µM
CC(C)(C)NC(=O)C1CCN(S(=O)(=O)c2ccc(Br)cc2)CC1 | inactive: > 76.9 µM
Cc1ccccc1-n1nnnc1SCC(N)=O | inactive: > 76.9 µM
O=C(O)CCC(=O)N1CCN(c2cccc(Cl)c2)CC1 | inactive: > 76.9 µM
O=C(NCc1ccc2c(c1)OCO2)c1ccc2c(c1)C(=O)N(Cc1cccnc1)C2=O | inactive: > 76.9 µM
CC(C)(C)C(=O)Nc1c2c(nc3c1CCC3)CCCC2 | inactive: > 76.9 µM
Cn1c(SCC(=O)Nc2ccc(N3CCOCC3)c(Cl)c2)nnc1-c1ccccc1 | inactive: > 76.9 µM
COc1ccccc1C1C(C(=O)c2cc3ccccc3o2)=C(O)C(=O)N1CCN1CCOCC1 (stereo not given) | inactive: > 76.9 µM
COc1cc2[nH]c3c(N4CCC(C(N)=O)CC4)ncnc3c2cc1OC | inactive: > 76.9 µM
N#Cc1ccccc1NC(=O)COC(=O)c1ccc(S(=O)(=O)N2CCCC2)cc1 | inactive: > 76.9 µM
CCOC(=O)c1sc(NC(=O)CSc2nncs2)c(C(=O)OCC)c1C | active: 9.61 µM
Cc1onc(-c2c(Cl)cccc2Cl)c1C(=O)NCCCN1CCOCC1 | inactive: > 76.9 µM
N#Cc1sc2nc3c(c(-c4cccnc4)c2c1N)CCC3 | inactive: > 76.9 µM
C=CCN1C(=O)C2C(C(=O)NCc3ccccc3)C3(C)C=CC2(O3)C1C(=O)NC(C)(C)C (stereo not given) | inactive: > 76.9 µM

SMILES | Potency
CCOC(=O)C1=C(NC(=O)c2ccc(Br)o2)Nc2ccccc2N=C1 | inactive: > 76.9 µM
CCn1cc(C(=O)NCc2ccc(C)o2)c2cc(OC)c(OC)cc2c1=O | inactive: > 76.9 µM
CCOC(=O)c1cnc2nc(COc3ccccc3)[nH]n2c1=O | inactive: > 76.9 µM
CCOC(=O)CC(/C(C)=N\O)c1ccccc1 (stereo not given) | inactive: > 76.9 µM
COC(=O)[C@H](C)NC(=O)Nc1ccc(OC)cc1OC | inactive: > 76.9 µM
CC(=O)c1ccc(NC2OC(CO)C(O)C(O)C2O)cc1 (stereo not given) | inactive: > 76.9 µM
O=C(c1ccco1)N1CCN(C(=O)c2cc(-c3ccccn3)nc3ccccc23)CC1 | inactive: > 76.9 µM
O=C(CCN1C(=O)c2ccccc2C1=O)Nc1ccc(S(=O)(=O)N2CCOCC2)cc1 | inactive: > 76.9 µM
Cc1[nH]nc2c1C(c1cn[nH]c1-c1ccc(F)cc1)C(C#N)=C(N)O2 (stereo not given) | inactive: > 76.9 µM
C=CCN(CC(=O)NCc1ccc(OC)cc1)C(=O)c1csnn1 | inactive: > 76.9 µM
CCN1CCN(c2ncnc3c2sc2nc(N4CCOCC4)c4c(c23)CCC4)CC1 | inactive: > 76.9 µM
CN(C)S(=O)(=O)c1ccc(N2CCCC2)c(C(=O)Nc2ccccc2N2CCOCC2)c1 | inactive: > 76.9 µM
COc1cc2c(cc1OC)-c1cc(NC3CC3)nc(=O)n1CC2 | inactive: > 76.9 µM
Cc1ccc2[nH]c3c(=O)n(CCCN4CCN(C)CC4)cnc3c2c1 | inactive: > 76.9 µM
c1cc(-c2nnc3n2CCCCC3)ccn1 | inactive: > 76.9 µM
COCc1[nH]nc2c1C(C1C=CCCC1)C(C#N)=C(N)O2 (stereo not given) | inactive: > 76.9 µM
CCC(C(=O)O)n1c(C(F)(F)F)nc2ccccc21 (stereo not given) | inactive: > 76.9 µM
COC(=O)Nc1ccc(OCc2ccccc2)cc1 | inactive: > 76.9 µM
CCn1c(NCc2ccc(N(C)C)cc2)nc2ccccc21 | inactive: > 76.9 µM
COc1ccc(NC(C)=O)cc1NC(=O)CN1CCN(S(=O)(=O)c2ccc(C(C)C)cc2)CC1 | inactive: > 76.9 µM
CC(C(=O)NCc1ccc2c(c1)OCO2)N1c2cccc3cccc(c23)S1(=O)=O (stereo not given) | inactive: > 76.9 µM
CC(=O)Nc1ccc(S(=O)(=O)N2CCCN(S(=O)(=O)c3ccc(NC(C)=O)cc3)CC2)cc1 | inactive: > 76.9 µM
O=C(O)c1cccnc1SCC(=O)N1CCCCCC1 | inactive: > 76.9 µM

SMILES | Potency
CCOC(=O)C(C)Sc1nc2c(c(=O)[nH]c(=O)n2C)n1C/C=C(/C)Cl (stereo not given) | inactive: > 76.9 µM
CCCc1cc(=O)[nH]c(SCC(=O)c2cc(C)n(CCOC)c2C)n1 | inactive: > 76.9 µM
Cc1cc(C(=O)COc2cccc(-n3cnnn3)c2)c(C)n1-c1ccccc1 | inactive: > 76.9 µM
CC(=O)NC1(c2ccccc2)CCN(c2nc(C)cc(C)n2)CC1 | inactive: > 76.9 µM
Cc1ccc(S(=O)(=O)N(C)CC(=O)Nc2cccc(C)n2)cc1 | inactive: > 76.9 µM
CCOC(=O)C1=C(c2ccccc2)Nc2ncnn2C1c1cccc(OC)c1OC (stereo not given) | inactive: > 76.9 µM
Cc1cc(C(=O)OCC(=O)Nc2ccc(F)cc2)c(C)o1 | inactive: > 76.9 µM
Fc1cccc(-c2cc3nc4c(c(N5CCN(c6cnccn6)CC5)n3n2)CCCC4)c1 | inactive: > 76.9 µM
COc1cccc2sc(Nc3nc(C)c(C(C)=O)s3)nc12 | inactive: > 76.9 µM
CC(O)c1nc2ccccc2n1C/C=C/c1ccccc1 (stereo not given) | inactive: > 76.9 µM
COc1ccc(-c2noc(COc3ccc4ccccc4c3Br)n2)cc1OC | inactive: > 76.9 µM
Cc1ccc2c(c1)N(CC(=O)OC(CC(C)C)C(=O)NC1CCCC1)C(=O)CO2 (stereo not given) | inactive: > 76.9 µM
Cn1c(N)c(C(=O)COC(=O)Cc2ccsc2)c(=O)n(C)c1=O | inactive: > 76.9 µM
C=C(C)CN(CC)C(=O)CSc1nc2ncc(Cl)cc2[nH]1 | inactive: > 76.9 µM
CCc1ccc(C2C(C(C)=O)=C(C(=O)OC)Nc3nnnn32)cc1 (stereo not given) | inactive
COc1cc(C(=S)N2CCC(C(N)=O)CC2)ccc1O | inactive: > 76.9 µM
Cc1ccc(Nc2nc(N)nc(CSc3nnc(-c4ccncc4)o3)n2)cc1 | inactive: > 76.9 µM
Clc1cccc2sc(N3CCN(c4ccccc4)CC3)nc12 | inactive: > 76.9 µM
CN(Cc1nc2ccccc2n1C)C(=O)c1cccs1 | inactive: > 76.9 µM
CC1CCCCN1C(=O)CSc1nc2ccccc2n1CC(=O)N1CCc2ccccc21 (stereo not given) | inactive: > 76.9 µM
CCCC(=O)Nc1cccn(Cc2ccccc2Br)c1=O | inactive: > 76.9 µM

Source: PubChem BioAssay AID360 (National Center for Advancing Translational Sciences (NCATS), 2006)
